# Hit rate of the full screen: of about 150,000 compounds, about 6,500 (4.3%) were called active. The inconclusive results got no clear call from the source; some entries with a clear call stand among them for comparison. The call rests on the fitted dose curve; in most records, active means well fitted inhibition curve with a large enough effect (not every such curve was filed as active); inconclusive means small, poorly fitted or top-dose-only effect, or another doubt; inactive means no such curve, though single readings can be large or run the other way. Potencies of inconclusive entries are left out as doubtful fits.
# Biological target: 15-hydroxyprostaglandin dehydrogenase [NAD(+)] (Homo sapiens) (UniProt P15428)
# Test: qHTS Assay for Inhibitors of HPGD (15-Hydroxyprostaglandin Dehydrogenase)
# Settings: purified HPGD, NADH fluorescence kinetic, PGE2 substrate; activity change, negative = inhibition: hits give low values
# How it was run: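 NADH formation kinetics: reaction with 30 uM PGE2 and 1 mM NAD+ (final), 20 nM enzyme, Tris-HCl pH 8 with Tween 20, after 15 min compound preincubation at room temperature. Fluorescence change, last versus first of five reads.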
# On the % scale 0 is the no-effect control and ±100 the full control effect; potency means the concentration at half of the fitted maximal effect; tags describe the fitted curve by direction and shape.
# Chain of UniProt P15428 (P15428 whole entry, looked up): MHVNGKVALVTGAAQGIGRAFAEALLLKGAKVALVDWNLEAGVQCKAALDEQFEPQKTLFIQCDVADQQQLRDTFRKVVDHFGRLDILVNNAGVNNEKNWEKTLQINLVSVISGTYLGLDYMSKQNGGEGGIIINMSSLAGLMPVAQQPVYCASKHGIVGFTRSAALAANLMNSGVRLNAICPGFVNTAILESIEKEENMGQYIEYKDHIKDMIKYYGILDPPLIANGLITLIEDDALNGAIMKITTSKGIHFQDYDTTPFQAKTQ
Compound,Potency,"activity change, negative = inhibition"
CCn1c(CSc2nccn2C)nc2cc(C(=O)O)ccc21,"inconclusive [inhibitor, partial curve]",
CCC(=O)Nc1sc2c(c1C(N)=O)CCC2,,inactive: -14.1%
CSc1sc(C)cc1/C=N/O,active: 15.8 µM,
COc1ccc(NC(=O)CCC(=O)c2ccc(-c3ccccc3)cc2)cc1,,inactive: 0.13%
COc1ccc2oc(-c3ccccc3)c(C(=O)N3CCOCC3)c2c1,"inconclusive [inhibitor, partial curve]",
Cc1c(C(=O)N(C)C)sc(NC(=O)c2cccc([N+](=O)[O-])c2)c1C#N,"inconclusive [inhibitor, partial curve]",
CC1=C(C)/C(=N\OS(=O)(=O)c2ccccc2)C=CC1=O,,inactive: -11.4%
Cc1oc(-c2ccccc2)nc1CSc1nc2c(c(=O)[nH]1)CCC2,active: 4.47 µM,
O=C(COC(=O)c1ccccc1NC(=O)c1ccco1)NCCC1=CCCCC1,"inconclusive [inhibitor, partial curve]",
CCOC(=O)c1c(C)c(C(=O)N2CCc3ccccc3C2)c(C)n1CC,active: 4.47 µM,
COc1cc(NC(=O)c2cccs2)c(C(=O)OCC(=O)NCc2ccccc2)cc1OC,"inconclusive [inhibitor, partial curve]",
O=C(CSc1cc(Cl)ccc1Cl)NCC1CCCO1 (stereo not drawn),active: 6.31 µM,
COC(=O)CSc1nc2ccc(NC(=O)CSc3nnnn3Cc3ccccc3)cc2s1,"inconclusive [inhibitor, partial curve]",
CC(Oc1ccc(Br)cc1)C(=O)Nn1c(=S)[nH]c2ncccc2c1=O (stereo not drawn),,inactive: -7.42%
COc1ccc(C(=O)C(CN2CCCC2)c2ccccc2)cc1 (stereo not drawn),,inactive: -7.86%
COc1ccccc1/C=C\C=N\n1c(-c2ccc(Cl)cc2Cl)n[nH]c1=S,active: 3.98 µM,
Cc1cc(C(F)(F)F)c(C#N)c(=O)[nH]1,"inconclusive [inhibitor, partial curve]",
O=C(Nc1nnc(SCc2cccc3ccccc23)s1)C1COc2ccccc2O1 (stereo not drawn),"inconclusive [inhibitor, single point]",
COc1ccc(C2C3=C(CCCC3=O)Nc3nc(C(F)(F)F)nn32)cc1OC (stereo not drawn),"inconclusive [inhibitor, full curve]",
CCCC(C)NC(=O)c1ccc(F)cc1 (stereo not drawn),"inconclusive [inhibitor, partial curve]",
O=S(=O)(c1ccccc1)c1cnc(-c2cccnc2)nc1-c1ccc(Cl)c(Cl)c1,,inactive: -3.89%
O=C(c1ccco1)c1nc2c(n1O)CCCCC2,,inactive: -9.59%
COc1cccc(-c2nc(-c3ccc(NC(=O)c4cccs4)cc3)no2)c1,"inconclusive [inhibitor, single point]",
Clc1ccc(-c2nnc3n2CCCC3)cc1Cl,active: 31.6 µM,
CCN(CC)S(=O)(=O)c1cc(C(=O)OCC(=O)Nc2ccc(-c3nc4ccc(C)cc4s3)cc2)ccc1F,"inconclusive [inhibitor, partial curve]",

Compound,Potency,"activity change, negative = inhibition"
CN(C)c1ccc(C(=S)N2CCCCCC2)cc1,active: 28.2 µM,
CCc1nnc(NC(=O)c2ccc(-c3ccccc3Cl)o2)s1,"inconclusive [inhibitor, partial curve]",
O=C(Nc1ccc(Cl)cc1Cl)c1cccc(N2C(=O)C=CC2=O)c1,,inactive: -2.92%
COc1ccc(OC)c(N=c2ssnc2Cl)c1,active: 3.16 µM,
Cc1nc2cnc(N(C)C)nc2n(Cc2ccc(F)cc2)c1=O,"inconclusive [inhibitor, partial curve]",
COc1ccc(-c2cc(-c3nnc(COC(=O)CC4CCCC4)o3)c3ccccc3n2)cc1OC,"inconclusive [inhibitor, single point]",
CCc1sc(C(=O)Nc2cc(Cl)ccc2N2CCCCC2)cc1C,"inconclusive [inhibitor, single point]",
CC12CCC(c3n[nH]c(=S)nc31)C2(C)C (stereo not drawn),"inconclusive [inhibitor, single point]",
Cc1cc(F)ccc1S(=O)(=O)Nc1ccccc1C(=O)Nc1ccccc1-c1nc2ccccc2[nH]1,"inconclusive [inhibitor, partial curve]",
O=S(=O)(c1ccc(Cl)cc1)n1c(Cc2ccccc2)nc2ccccc21,,inactive: -9.67%
CCOC(=O)c1sc(-c2ccc(OC)cc2)cc1NC(C)=O,"inconclusive [inhibitor, partial curve]",
COc1cc2c(cc1OC)-c1nnc(-c3ccco3)n1C1(CCCC1)C2,"inconclusive [inhibitor, partial curve]",
CNCc1ccccc1Sc1cccc(O)c1,,inactive: 1.3%
CCOc1ccc2c(c1)OC(c1ccccc1)(C(F)(F)F)NC2=O (stereo not drawn),,inactive: -7.29%
O=C(NC12CC3CC(CC(C3)C1)C2)c1cc2nc(-c3ccco3)cc(C(F)(F)F)n2n1,"inconclusive [inhibitor, partial curve]",
C=CCOc1ccc2c(CC)cc(=O)oc2c1C,"inconclusive [inhibitor, partial curve]",
CCOC(=O)c1c(C)oc2cc(Br)c(O)c(Br)c12,,inactive: -3.13%
CC1CC(C)CN(c2oc(-c3ccco3)nc2C#N)C1 (stereo not drawn),"inconclusive [inhibitor, partial curve]",
CCCSC1=C(C#N)C(c2cc(OC)ccc2OC)CC(=O)N1 (stereo not drawn),active: 22.4 µM,
O=C(NCc1ccccc1)N(Cc1nc2ccccc2c(=O)[nH]1)C1CCCC1,"inconclusive [inhibitor, partial curve, poor fit]",
COc1cc(OC)c2c(C)cc(=O)oc2c1,"inconclusive [inhibitor, partial curve]",
C/C(=N\NC(=O)COc1ccc(C)cc1C(C)C)c1ccc(-n2ccnc2)cc1,,inactive: -13.9%
COc1ccc2[nH]c(C)cc(=O)c2c1,"inconclusive [inhibitor, partial curve]",
O=C(Nc1ccccc1C(=O)O)c1ccc(Br)o1,"inconclusive [inhibitor, single point]",
CCn1c(CSc2nc(C)cc(C)n2)nnc1SCC(=O)Nc1ccccc1,,inactive: -13.2%

Compound,Potency,"activity change, negative = inhibition"
CC1(C)Cc2c(sc3nc(N/N=C/c4ccccc4)[nH]c(=O)c23)CO1,"inconclusive [inhibitor, partial curve]",
S=C(c1ccc(N2CCOCC2)cc1)N1CCCCC1,,inactive: -27%
CCN(CC)[C@@H](C)CN1c2ccccc2Sc2ccccc21,"inconclusive [inhibitor, partial curve]",
c1ccc(Cc2nn3c(-c4ccncc4)nnc3s2)cc1,active: 28.2 µM,
CCOC(=O)c1sc(NC(=O)c2ccc3ncsc3c2)nc1C,"inconclusive [inhibitor, single point]",
CCCC1N2CC3([N+](=O)[O-])CN1CC([N+](=O)[O-])(C2)C3(C)C (stereo not drawn),,inactive: -6.25%
Cc1cc(=O)oc2cc(OC(=O)c3nn(C(C)C)c(=O)c4ccccc34)ccc12,"inconclusive [inhibitor, partial curve]",
COc1cccc(OCCN2CCN(c3ncnc4c3cnn4-c3ccccc3)CC2)c1,"inconclusive [inhibitor, partial curve]",
COc1ccccc1/C=C/C(=O)N1CCCC1,"inconclusive [inhibitor, partial curve]",
CC1(C)Cc2nc3oc4c(=S)nc[nH]c4c3cc2CO1,active: 28.2 µM,
O=C(/C=C\c1ccc2c(c1)OCO2)NC1(C(=O)Nc2ccc3c(c2)OCCO3)CCCCC1,"inconclusive [inhibitor, partial curve]",
O=C(C1COc2ccccc2O1)N1CCc2ccccc21 (stereo not drawn),"inconclusive [inhibitor, partial curve]",
Cc1cc(C)nc(N/C(=N\S(=O)(=O)Cc2ccccc2)Nc2ccc(F)c(Cl)c2)n1,,inactive: -3.19%
O=C(N/N=C/c1ccncc1)c1cc2c(ccc3ccccc32)o1,"inconclusive [inhibitor, partial curve]",
NC(=O)C1CCN(C(=O)/C=C/c2ccco2)CC1,,inactive: -21.4%
O=C(CSc1nc(-c2ccccc2)c(-c2ccccc2)o1)N1CCOCC1,"inconclusive [inhibitor, partial curve]",
Clc1ccc(NNc2ccnc3cc(Cl)ccc23)cc1,,inactive: -18.6%
CCOC(=O)c1nn(-c2ccc(C)cc2)c2nc(Nc3ccccc3)cc(=O)n12,"inconclusive [inhibitor, partial curve]",
CCCCN1C(=O)C(NC(C)=O)c2ccccc21 (stereo not drawn),,inactive: 2.55%
COc1ccc(C2C=C(c3ccc(Br)cc3)Nc3nc(N4C(=O)CCC4=O)nn32)cc1 (stereo not drawn),"inconclusive [inhibitor, partial curve]",
COc1cc([C@@H]2c3cc4c(cc3[C@@H](O[C@@H]3O[C@H]5CO[C@@H](C)O[C@@H]5[C@@H](O)[C@H]3O)[C@@H]3COC(=O)[C@@H]23)OCO4)cc(OC)c1O,,inactive: -10.4%
O=C(Nc1nnc(-c2ccc3c(c2)OCCO3)o1)c1ccc(Cc2ccccc2)cc1,"inconclusive [inhibitor, partial curve, poor fit]",
O=C(O)CCCc1ccc2ccc3ccccc3c2c1,,inactive: -10.6%

# — PubChem BioAssay AID894 (National Center for Advancing Translational Sciences (NCATS), 2007)
